Sequences with one replicate were seen in a single cluster, so their values are uncertain.
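Also: ATP exposure 15 min at 22 °C before imaging.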

In the series the test system is ATP. Kind of series: switch fluorescence ratio, 500 uM ATP over buffer (Cy3 cluster intensity, sum of 5 cycles each) (fold (ratio)); higher = stronger signal-on switching upon ATP binding; sequences stand for … in TCGTCGGCAGCGTCAGATGTGTATAAGAGACAGTTTTTTTTTTTTTTTTTTTTTTTTT…TC. As to conditions: aptamer strand: ATP DNA aptamer (quencher-CACCTGGGGGAGTATTGCGGAGGAAGG + anchor), 100 nM annealed; ATP concentration: 500 uM; one replicate. The procedure, abridged: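 The quencher-labelled ATP aptamer, at 100 nM, was annealed to Cy3-labelled switching-strand clusters on a modified Illumina MiSeq flow-cell. The clusters were imaged in selection buffer, then after 15 min with 500 uM ATP at 22 °C, and this buffer/ATP cycle ran five times with NaOH stripping and re-annealing between runs. Per-cluster fluorescence ratios, summed target-cycle over summed buffer-cycle Cy3 intensity, were averaged per switch-domain sequence. Clusters outside 100-1000 RFU were excluded.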
On to ACCCTGGCGT, for which the switch fluorescence ratio stood at 1.01.

On to CATGTAGAAG, for which the switch fluorescence ratio worked out at 1.02.

As for GGGGTGTCCC, the switch fluorescence ratio was found to be 0.972.

As for ATACTGGTAT, the switch fluorescence ratio came out at 1.01.

With AGGATTACTA, the switch fluorescence ratio was 0.993.

For the sequence TGCAAGATCT, the switch fluorescence ratio was 1.05.

Regarding GAACATACAT, the switch fluorescence ratio is 1.27.

Regarding TTTGGTCCGA, the switch fluorescence ratio is 1.01.

Regarding AGTAGATTAC, the switch fluorescence ratio was 1.01.

For AATGTCCGTA, the switch fluorescence ratio came to 1.09.

In the case of AAAGACAGTA, the switch fluorescence ratio was determined as 1.03.

Take ATTAAATACA: the switch fluorescence ratio stood at 1.03.

As to ACACGGGTAC, the switch fluorescence ratio worked out at 1.28.

As for TTACCCGGAG, the switch fluorescence ratio came to 1.04.

In the case of TAAGCTTCTA, the switch fluorescence ratio was determined as 1.03.

ATCGTTCAGA: the switch fluorescence ratio came out at 1.02.

For ACTAGGGGAG, the switch fluorescence ratio was determined as 0.996.

Consider ATGGGACCGA, for which the switch fluorescence ratio came out at 1.01.

As to CGTCGCCAGT, the switch fluorescence ratio is 0.996.

With ATGCTAGGTA, the switch fluorescence ratio came to 1.02.

For GCTTGAGGAT, the switch fluorescence ratio came to 1.03.

As for GACGCACGGC, the switch fluorescence ratio worked out at 2.31.

As for CCTTATATTG, the switch fluorescence ratio was 0.994.

Take TAGGGGCGCC: the switch fluorescence ratio amounted to 1.01.

Consider AGGTGGCCGC, for which the switch fluorescence ratio was 0.989.

With TTTGAGGGAA, the switch fluorescence ratio turned out to be 1.02.

Regarding CCTACGATGG, the switch fluorescence ratio came to 2.39.

Regarding AGAACGTCGA, the switch fluorescence ratio is 0.995.

Take CACATGGCGT: the switch fluorescence ratio was found to be 0.998.

For GATGTGTTAA, the switch fluorescence ratio was determined as 1.01.

CGGTATCGTG: the switch fluorescence ratio was 0.972.

Regarding CCTGATCTGC, the switch fluorescence ratio is 1.33.

As for AATCGCAGGG, the switch fluorescence ratio is 0.995.

Take GCACTGAACT: the switch fluorescence ratio was found to be 1.14.

As for AGTGTGGAGC, the switch fluorescence ratio worked out at 0.984.

With GATTCGTTCG, the switch fluorescence ratio was determined as 0.981.

Regarding CTGTTGTGGC, the switch fluorescence ratio turned out to be 0.949.

For the sequence TGAGACACCA, the switch fluorescence ratio is 0.986.

On to CTATACTAGA, for which the switch fluorescence ratio came out at 0.964.

GTGGATCCTC: the switch fluorescence ratio is 1.02.

On to AATGGGCGC, for which the switch fluorescence ratio stood at 0.964.

With GATGCTAACT, the switch fluorescence ratio amounted to 1.01.

With GCGGGGTTCG, the switch fluorescence ratio came out at 0.985.

As for GATATAGCGG, the switch fluorescence ratio was determined as 0.953.

Consider GGCTTGTGTG, for which the switch fluorescence ratio was 0.955.

Consider GTGATGGGCA, for which the switch fluorescence ratio was found to be 1.39.

In the case of AATACGTGCA, the switch fluorescence ratio came out at 1.04.

TCCGAGAAGG: the switch fluorescence ratio was found to be 1.1.

Take GGGGAAGCCC: the switch fluorescence ratio came to 0.984.

In the case of GTGACAGGCG, the switch fluorescence ratio amounted to 1.

With CCGGGAAAAT, the switch fluorescence ratio came out at 1.02.

As to AGGGCCGTGT, the switch fluorescence ratio is 0.985.

CGTCTATTCG: the switch fluorescence ratio worked out at 0.988.

Regarding TGAAGTAA, the switch fluorescence ratio worked out at 1.06.

On to CTGATTCTAA, for which the switch fluorescence ratio was found to be 0.968.

Consider CACGGCTACT, for which the switch fluorescence ratio is 1.39.

As to CTGATAGGGT, the switch fluorescence ratio was 0.976.

On to CGTTCGAGTC, for which the switch fluorescence ratio came out at 1.

For the sequence CCCTTGTCGT, the switch fluorescence ratio is 0.996.

Regarding AGGTATAGTC, the switch fluorescence ratio is 1.04.

Turning to AAGGGGTACG, the switch fluorescence ratio turned out to be 1.03.

As to TCCAGATTG, the switch fluorescence ratio came to 1.02.

In the case of CAGCAATTTC, the switch fluorescence ratio turned out to be 3.43.

TTGGACCAAA: the switch fluorescence ratio was 0.974.

For TAAGTTAGGC, the switch fluorescence ratio worked out at 0.992.

Regarding TCAGATTTTG, the switch fluorescence ratio is 1.

In the case of CGTAATCGCC, the switch fluorescence ratio came to 1.14.

GTAATCGCAG: the switch fluorescence ratio is 0.987.

With GAGCTCACCC, the switch fluorescence ratio is 0.999.

For GTTTCCTGAT, the switch fluorescence ratio was 0.971.

Regarding GGGAAGATAT, the switch fluorescence ratio is 0.937.

On to CCGTCCAAGA, for which the switch fluorescence ratio worked out at 3.19.

On to TAATTCTGTG, for which the switch fluorescence ratio amounted to 0.99.

As for GGTCGATGCT, the switch fluorescence ratio turned out to be 1.01.

Turning to TCTAAAAATC, the switch fluorescence ratio was determined as 1.04.

As to TGCGATTGCG, the switch fluorescence ratio turned out to be 1.01.

On to GGTGATTGT, for which the switch fluorescence ratio came out at 1.03.

TACGAAATCG: the switch fluorescence ratio is 1.03.

(Values after the supplement of paper PMC10126150.)
